The campaign covered roughly 310,000 compounds. About 14,000 (4.5%) showed an effect of 50% or more. Effects have a minus sign here. The list shows a part of the results. Where a SMILES comes first, the peptide text is derived from it. The star is where a group is joined. Cbz = O=C(OCc1ccccc1)*
target: human ether-à-go-go-related gene (hERG) potassium channel (human, UniProt Q12809); assay: primary screen, population patch clamp on CHO cells stably expressing hERG
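Also: peak tail current of the secondary pulse compared with the same well before compound.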

Chain of human ether-à-go-go-related gene (hERG) potassium channel (Q12809 whole entry, looked up): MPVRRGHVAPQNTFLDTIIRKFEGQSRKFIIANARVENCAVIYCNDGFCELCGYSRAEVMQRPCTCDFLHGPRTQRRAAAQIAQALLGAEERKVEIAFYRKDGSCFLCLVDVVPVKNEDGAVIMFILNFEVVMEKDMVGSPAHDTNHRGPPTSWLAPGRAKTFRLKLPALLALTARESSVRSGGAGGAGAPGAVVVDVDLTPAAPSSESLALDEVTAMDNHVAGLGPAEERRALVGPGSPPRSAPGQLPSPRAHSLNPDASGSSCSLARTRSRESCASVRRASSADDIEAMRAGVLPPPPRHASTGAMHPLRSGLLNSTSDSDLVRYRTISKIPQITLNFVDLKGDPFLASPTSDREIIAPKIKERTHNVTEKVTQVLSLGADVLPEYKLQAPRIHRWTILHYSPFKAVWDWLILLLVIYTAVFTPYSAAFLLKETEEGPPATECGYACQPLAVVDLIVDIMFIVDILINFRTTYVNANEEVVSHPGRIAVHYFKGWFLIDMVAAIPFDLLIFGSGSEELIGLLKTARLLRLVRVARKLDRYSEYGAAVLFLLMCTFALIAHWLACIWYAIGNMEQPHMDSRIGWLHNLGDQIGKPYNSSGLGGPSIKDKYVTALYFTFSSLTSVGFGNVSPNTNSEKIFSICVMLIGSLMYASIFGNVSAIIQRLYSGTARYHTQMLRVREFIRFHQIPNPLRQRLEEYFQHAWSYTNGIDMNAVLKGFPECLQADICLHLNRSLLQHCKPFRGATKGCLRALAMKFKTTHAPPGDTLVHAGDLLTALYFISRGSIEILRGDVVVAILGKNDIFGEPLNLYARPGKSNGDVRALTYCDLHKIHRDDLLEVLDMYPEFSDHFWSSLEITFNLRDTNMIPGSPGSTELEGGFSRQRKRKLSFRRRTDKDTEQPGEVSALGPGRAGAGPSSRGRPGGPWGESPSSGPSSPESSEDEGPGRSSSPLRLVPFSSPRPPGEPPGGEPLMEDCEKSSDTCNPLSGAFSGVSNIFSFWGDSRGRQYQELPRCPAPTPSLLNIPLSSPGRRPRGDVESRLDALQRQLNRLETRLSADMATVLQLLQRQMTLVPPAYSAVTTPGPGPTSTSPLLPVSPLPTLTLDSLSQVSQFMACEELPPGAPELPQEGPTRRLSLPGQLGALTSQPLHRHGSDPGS

| Structure (SMILES) | hERG current change (%, negative = inhibition) at 10uM |
| --- | --- |
| COc1ccc(NC(=O)C2CCN(S(=O)(=O)c3ccc(C)cc3)CC2)cc1OC | -21.3% |
| COc1ccc(NC(=O)C23CC4CC(C2)CC(n2cnc(Br)n2)(C4)C3)cc1OC | -2.41% |
| CCOC(=O)C1(C)C=C(Nc2ccc(C)cc2)C(=O)N1c1ccc(C)cc1 (stereo not drawn) | 28.5% |
| COc1cccc(SCC2(O)CCN(C(=O)c3ccc(Cl)cc3)CC2)c1 | -69% |
| C=CCn1c(C)cc(C(=O)CSc2nc3ccccc3o2)c1C | 18% |
| O=C(c1cccc(C(F)(F)F)c1)C1CCCN(C(=O)CN2CCOC2=O)C1 (stereo not drawn) | -4.08% |
| O=C(c1ccc2c(c1)OCO2)C1CCCN(CC2CCCCC2)C1 (stereo not drawn) | -71.8% |
| O=C(c1ccc(NS(=O)(=O)c2ccc3c(c2)OCCO3)cc1)N1CCCCC1 | -2.47% |
| CCc1ccc(OCc2ccc(C(=O)OC)o2)cc1 | 9.41% |
| COc1ccc(NC(=O)CCSc2nnc(C)s2)cc1 | 20.4% |
| CCOc1ccc(CNCc2ccc(C(=O)O)cc2)cc1OC.Cl | 15.1% |
| C=CCNCCCCOc1ccc(C)cc1[N+](=O)[O-] | -7.31% |
| CC(NC(=O)NC1CCCCC1)C(c1cccs1)N1CCN(c2ccccc2)CC1 (stereo not drawn) | -48.6% |
| COC(=O)CCCC1=CC2=CC(=O)C(C)(OC(=O)c3cccs3)C(=O)C2=CO1 (stereo not drawn) | 11.2% |
| CCCNC(=O)/C=C/c1ccc(C(C)C)cc1 | -10.1% |
| N=C1/C(=C\c2ccc(-c3cccc(C(=O)O)c3)o2)C(=O)N=C2SC=C(c3ccccc3)N12 | 0.469% |
| CC1CCN(C(=O)CCNS(=O)(=O)c2ccccc2)CC1 | -1.37% |
| Cc1cc(C)nc(/N=C(\N)Nc2cccc([N+](=O)[O-])c2)n1 | -28.7% |
| COc1ccccc1N(C)S(=O)(=O)c1ccc(C(=O)Nc2nc(C)c(C(C)=O)s2)cc1 | 11.6% |

| Structure (SMILES) | hERG current change (%, negative = inhibition) at 10uM |
| --- | --- |
| CC(C)CCN1C(Nc2ccccc2)=NC[C@@H]1C | -9.63% |
| CCOc1ccccc1OCCCC(=O)N1CCN(S(=O)(=O)c2ccc(C)cc2C)CC1 | -17.7% |
| COCCn1c(SCC(=O)Nc2nnc(C)s2)nnc1-c1cc2ccccc2cc1O | -16.9% |
| Cc1cc2nn(-c3cccc4ccccc34)nc2cc1N | 13% |
| COc1ccc(S(=O)(=O)N2CCN(C3CC4CCC3C4)CC2)cc1.O=C(O)C(=O)O (stereo not drawn) | 3.43% |
| CCOc1cccc(N2C(=O)CC(NNC(=O)c3ccc(Br)o3)C2=O)c1 (stereo not drawn) | 4.35% |
| CCC1(C)Cc2c(sc3nnn(CC(=O)Nc4ccccc4)c(=O)c23)CO1 (stereo not drawn) | -27.3% |
| CN(C)CCNc1ccc(-c2nn(C)c(=O)c3ccccc23)cc1[N+](=O)[O-] | -1.47% |
| CO/N=C(/CNC(=O)c1ccc(F)cc1)c1ccc(Cl)cc1 | 3.49% |
| Nc1c(-c2ccccc2)cnn1-c1ccccc1 | 12% |
| Cc1cc(C(=O)N2CCN(S(C)(=O)=O)CC2)cs1 | 13% |
| COc1ccc(Cl)cc1S(=O)(=O)Nc1ccc2c(c1)n(C)c(=O)n2C | 1.45% |
| Oc1ccccc1-c1nc(NC2CCCC2)c2ccccc2n1 | 17.8% |
| N#C/C=C/N1CCN(C(=O)c2ccco2)CC1 | 5.33% |
| CC(=O)Oc1ccc(/C=N/NC(=S)Nc2ccccc2)cc1 | 1.99% |
| Br.CCCN(CCC)[C@@H]1CCc2cccc(O)c2C1 | -34.4% |
| COC(=O)C1(C(=O)OC)Sc2ccccc2C1=O | 5.35% |
| S=c1[nH]nc(COc2cccc(Cl)c2)n1Cc1ccccc1 | 34.4% |
| CCOc1ccc(C(=O)NC(=S)Nc2ccc(NC(=O)CC)cc2)cc1[N+](=O)[O-] | 2.77% |

| Structure (SMILES) | hERG current change (%, negative = inhibition) at 10uM |
| --- | --- |
| CCN(CC(=O)NCc1ccc(Cl)cc1)C(=O)c1cc2ccccc2o1 | -32.2% |
| CC(C)CC(NC(=O)C1CCCN1C(=O)CNC(=O)OCc1ccccc1)C(=O)O (stereo not drawn) (Cbz-Gly-Pro-Leu-OH; configuration not given here) | 20.3% |
| CN(C1CCCCC1)S(=O)(=O)c1ccc(NC(=S)NC(=O)c2cccs2)cc1 | 12.6% |
| Cc1ccc(Cl)cc1NC(=O)[C@@H]1CCC(=O)N1C1OC(=O)c2ccccc21 (stereo partly drawn) | 11.1% |
| COCCn1c(CCC(=O)O)ccc1-c1cccs1 | 15.5% |
| CCCC(=O)Nc1cc(C(=O)O)ccc1Sc1ccccc1 | 36.6% |
| COc1cc(/C=C/C(=O)O)cc(OC)c1O | 2.08% |
| Oc1ccc(/C=N/NP(=S)(c2ccccc2)c2ccccc2)cc1 | -3.89% |
| O=C(NC1CCCCC1)c1cc([N+](=O)[O-])ccc1N1CCOCC1 | -13.8% |
| O=C(COc1ccccc1)N1CCc2ccccc21 | 0.422% |
| O=C(CN(Cc1ccco1)C(=O)c1cccc(Cl)c1)Nc1c(Cl)cc(Cl)cc1Cl | 0.756% |
| CC(C)CCN(C)C1CCN(S(=O)(=O)c2cccc(C(F)(F)F)c2)CC1.Cl | -36.4% |
| CCOc1ccc(CCN2CN(CC)CNC2=S)cc1OCC | -0.457% |
| CC(C)CC(=O)N(c1nnc(-c2cccnc2)s1)C1CCCC1 | 3.24% |
| COc1cccc(C(=O)NCCS(=O)(=O)N2CCOCC2)c1 | -8.53% |
| Cc1ccc(NC(=O)CC(=O)Nc2ccc(C)c(C)c2)cc1C | 11.7% |
| CCOC(=O)c1ccc(N=Cc2nc3ccccc3n2C)cc1 | 7.61% |
| COc1ccccc1NC(=O)CCCNC(=O)Cn1cnc2sc(C)c(C)c2c1=O | 10.2% |
| COc1ccccc1NC(=O)CSc1nnc(CCNC(=O)c2ccc(C)cc2)n1C | -3.75% |
